# Experimental data published in PubChem BioAssay AID1347165 (National Center for Advancing Translational Sciences (NCATS), 2019).
# In all, about 220,000 compounds went through this assay and about 5,700 (2.6%) were called active. Inconclusive results, whose numbers are uncertain, are shown with a selection of clear calls. Calls follow the shape of the dose curve; as a rule, active = well fitted inhibition curve with a large enough effect; inconclusive = small, poorly fitted or top-dose-only effect; inactive = no such curve, though single readings can be large or run the other way. Where the call is inconclusive, the potency comes from a doubtful curve fit.
# Target: Lysine-specific demethylase 5B (Homo sapiens) (UniProt Q9UGL1)
# Experiment: Primary screen for KDM5B Histone Demethylases FDH-coupled qHTS; also: nearly all actives have a fitted effect of over 70% in size; as to activity change, negative = inhibition: 0% is about no effect
# Details: FDH-coupled NADH fluorescence (FDH is formaldehyde dehydrogenase); activity change, negative = inhibition: at 57.7 µM (top of the series) unless noted
# Outline: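 qHTS format, multiple compound concentrations. Buffer 50 mM HEPES pH 7.5/0.01% Tween-20; 200 nM KDM5BΔAP final; 10 min compound preincubation; substrate-mix levels 12.5 µM peptide, 25 µM α-KG, 0.25 mM NAD⁺; 30 min RT; ΔRFU.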
# Potency is read from the fitted curve at half-maximal effect; tags tell the direction and shape of the fitted curve.
# UniProt Q9UGL1, sequence (Q9UGL1 whole entry, looked up): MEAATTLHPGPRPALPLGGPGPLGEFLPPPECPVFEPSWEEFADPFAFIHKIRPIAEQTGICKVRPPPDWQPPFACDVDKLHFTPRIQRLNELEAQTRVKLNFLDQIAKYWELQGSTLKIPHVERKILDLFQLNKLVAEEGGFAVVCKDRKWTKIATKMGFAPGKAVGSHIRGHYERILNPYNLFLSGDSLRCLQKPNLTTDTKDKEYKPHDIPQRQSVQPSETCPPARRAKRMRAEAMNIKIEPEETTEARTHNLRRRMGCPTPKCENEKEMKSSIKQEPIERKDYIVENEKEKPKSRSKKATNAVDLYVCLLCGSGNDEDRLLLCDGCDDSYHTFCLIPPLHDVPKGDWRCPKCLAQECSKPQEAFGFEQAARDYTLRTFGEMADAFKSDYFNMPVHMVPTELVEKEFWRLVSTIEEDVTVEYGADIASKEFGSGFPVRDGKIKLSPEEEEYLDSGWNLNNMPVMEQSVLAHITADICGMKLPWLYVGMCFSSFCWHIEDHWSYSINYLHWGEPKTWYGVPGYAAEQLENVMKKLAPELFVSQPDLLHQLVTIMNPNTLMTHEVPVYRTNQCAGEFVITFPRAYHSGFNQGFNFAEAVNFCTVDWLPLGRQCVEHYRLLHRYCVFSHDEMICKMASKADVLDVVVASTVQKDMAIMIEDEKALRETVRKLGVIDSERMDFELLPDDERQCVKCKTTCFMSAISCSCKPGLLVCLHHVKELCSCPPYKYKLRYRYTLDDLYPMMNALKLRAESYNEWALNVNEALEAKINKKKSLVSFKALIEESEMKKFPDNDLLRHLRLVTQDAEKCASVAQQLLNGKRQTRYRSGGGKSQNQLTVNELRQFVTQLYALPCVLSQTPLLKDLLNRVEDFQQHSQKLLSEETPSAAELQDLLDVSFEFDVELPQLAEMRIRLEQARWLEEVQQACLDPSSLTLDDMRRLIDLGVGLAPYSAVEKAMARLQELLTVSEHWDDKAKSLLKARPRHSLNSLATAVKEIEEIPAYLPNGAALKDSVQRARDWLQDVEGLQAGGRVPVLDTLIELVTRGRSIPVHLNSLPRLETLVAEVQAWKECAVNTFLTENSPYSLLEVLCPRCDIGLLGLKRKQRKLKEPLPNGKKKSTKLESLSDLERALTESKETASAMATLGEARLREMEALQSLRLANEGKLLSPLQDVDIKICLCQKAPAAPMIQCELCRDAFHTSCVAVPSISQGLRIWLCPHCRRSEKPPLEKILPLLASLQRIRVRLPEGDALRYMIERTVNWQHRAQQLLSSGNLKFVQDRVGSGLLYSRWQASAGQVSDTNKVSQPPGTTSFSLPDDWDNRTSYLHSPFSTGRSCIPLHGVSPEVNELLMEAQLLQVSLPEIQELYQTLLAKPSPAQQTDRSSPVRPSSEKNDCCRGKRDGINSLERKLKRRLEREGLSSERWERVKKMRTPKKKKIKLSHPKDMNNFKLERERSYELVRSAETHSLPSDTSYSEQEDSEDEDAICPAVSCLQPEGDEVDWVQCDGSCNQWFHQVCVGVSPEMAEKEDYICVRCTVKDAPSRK
SMILES,Potency,"activity change, negative = inhibition"
COc1cccc(C(=O)Nc2c(C(=O)NC(C)(C)C)oc3ccccc23)c1,"inconclusive: 39.8 µM [inhibitor, single point]",
Cc1ccc(C2CC(c3ccc4c(c3)OCO4)=NN2C(=O)CCC(=O)O)cc1 (stereo not given),,inactive: -8.02%
CCc1cccc2sc(N3CCN(C(=O)c4cc5ccccc5cc4OC)CC3)nc12,"inconclusive: 1.78 µM [inhibitor, full curve, poor fit]",
COc1ccc(C(=O)Nc2ccnn2C2CCN(C(=O)CN)CC2)cc1,"inconclusive: 31.6 µM [inhibitor, partial curve, poor fit]",
Cc1ccc(CCNC(=O)Cn2c(-c3cccs3)cc3cc(F)ccc32)cc1,"inconclusive: 31.6 µM [inhibitor, partial curve, poor fit]",
Cc1ccccc1Nc1cc2c(nc1-c1ccccc1)nc(C(=O)NCCN(C)C)n2C,active: 35.5 µM,
CC1(C)CC(NC(=O)Nc2ccc(OC(F)(F)F)cc2)CC(C)(C)N1,,inactive: -11.3%
Cc1ccc(CNC(=O)Cn2ccn(-c3ccc(C)c(C)c3)c(=O)c2=O)cc1,"inconclusive: 31.6 µM [inhibitor, partial curve, poor fit]",
Cc1ccc(CNC(=O)CN(c2ccc(Cl)cc2Cl)S(=O)(=O)c2ccccc2)cc1,"inconclusive: 15.8 µM [inhibitor, partial curve, poor fit]",
Cc1ccc(-n2nc3c(N4CCCC(C(=O)NCCc5ccccc5)C4)nnc(C)c3c2C)cc1 (stereo not given),"inconclusive: 11.2 µM [inhibitor, partial curve, poor fit]",
CC1=NOC2(CCN(C(=O)c3ccccc3F)C2)C1 (stereo not given),,inactive: -11.2% [at 86.2 µM]
CCS(=O)(=O)N(C)CCCNC(=O)c1cn(C)c2ccccc12,"inconclusive: 39.8 µM [inhibitor, single point]",
Cc1cc(Cl)cc(Cl)c1CNCC1(O)CCCNC1 (stereo not given),,inactive: 54.4%
Cn1ccnc1CN1C[C@@H](F)[C@@H](OCc2nc3ccncc3[nH]2)C1,"inconclusive: 35.5 µM [inhibitor, partial curve]",
CCC1CCCCN1CCCNC(=O)CN1C(=O)CSc2ccc(S(=O)(=O)N3CCC(C)CC3)cc21 (stereo not given),"inconclusive: 35.5 µM [inhibitor, single point]",
CCN1C(=O)CCC2(C(=O)NC3CCCC3)CCCC=C12 (stereo not given),,inactive: -9.74%
Cc1cc(C)c2oc(-c3cccc(NC(=O)c4ccco4)c3)nc2c1,"inconclusive: 25.1 µM [inhibitor, partial curve, poor fit]",
Cc1c(Cc2ccc3c(c2)OCO3)sc(NC(=O)C2CC2)c1C(N)=O,"inconclusive: 28.2 µM [inhibitor, partial curve, poor fit]",
COc1ccccc1CNc1nc(-c2ccc(C#N)cc2)cs1,"inconclusive: 3.16 µM [inhibitor, full curve, poor fit]",
Cc1ncc(CC(=O)NCc2ccc3[nH]c(-c4ccccc4F)c(C)c3c2)c(=O)[nH]1,"inconclusive: 28.2 µM [inhibitor, partial curve, poor fit]",

SMILES,Potency,"activity change, negative = inhibition"
C/C(CC(C)C)=N\NC(=O)CCC(=O)N/N=C(\C)CC(C)C,"inconclusive: 20 µM [inhibitor, single point]",
COC1CCC(C(=O)N2CCCn3nc(C)c(-c4ccccc4C(C)C)c32)CC1 (stereo not given),,inactive: -13.6% [at 86.2 µM]
CCOc1ccccc1NC(=O)c1sc(-n2nc(C)c(CCC(C)C)c2C)nc1C,,inconclusive: -38.3% [inhibitor]
Cc1ncsc1C(=O)N1CCc2c(n(Cc3cccnc3)n(CCc3ccccc3)c2=O)C1,,inactive: -5.11%
Cc1nc2c(C(=O)N(C)Cc3ccccc3)c[nH]n2c(=O)c1Cc1ccc(Cl)cc1,"inconclusive: 31.6 µM [inhibitor, partial curve, poor fit]",
CCNS(=O)(=O)c1ccc(C)c(C(=O)NCc2coc(-c3cccs3)n2)c1,"inconclusive: 25.1 µM [inhibitor, partial curve, poor fit]",
Cn1cc(-c2cc3n(n2)CCCN3C(=O)CCC(=O)NCCCN2CCCC2)c2ccccc21,,inactive: -28.4%
COCCN1CCCCCC(O)c2cc(C(=O)Nc3cccc(OC)c3)ccc21 (stereo not given),"inconclusive: 17.8 µM [inhibitor, single point]",
O=S(=O)(c1ccccc1)N1CCCC1c1nc2ccccc2[nH]1 (stereo not given),,inactive: 14.5%
COC(=O)Cc1c(C)c2ccc(OC3CCCCC3=O)c(C)c2oc1=O (stereo not given),"inconclusive: 14.1 µM [inhibitor, partial curve, poor fit]",
Cc1cn2nc(C(=O)N3CCC(NC(=O)c4ccc(C)s4)CC3)cc2c(=O)[nH]1,"inconclusive: 25.1 µM [inhibitor, single point]",
O=C(NC[C@H]1O[C@@H](CO)[C@@H](O)[C@H]1N1CCOCC1)c1ccco1,"inconclusive: 31.6 µM [inhibitor, partial curve, poor fit]",
O=S(=O)(c1ccc2[nH]c3c(c2c1)CCCCC3)N1CCN(c2ccccc2)CC1,"inconclusive: 35.5 µM [inhibitor, single point]",
COc1cccc(OC2CN(C(=O)c3[nH]c4c(C)cc(C)cc4c3C)C2)c1,"inconclusive: 28.2 µM [inhibitor, partial curve, poor fit]",
CCN1CCc2[nH]cnc2C12CCN(C(=O)C1CCc3ccccc3C1)CC2 (stereo not given),"inconclusive: 11.2 µM [inhibitor, partial curve, poor fit]",
CCN(CC)CCNC(=O)Cn1ncc2c3ccccc3n(Cc3ccccc3C)c2c1=O,"inconclusive: 31.6 µM [inhibitor, partial curve, poor fit]",
N#Cc1ccc[n+](CC(=O)c2ccc(NC(=O)c3ccccc3)cc2)c1,"inconclusive: 14.1 µM [inhibitor, partial curve, poor fit]",
COc1ccc(OCC2(C)COc3ccc(C(=O)NCCc4ccccc4)cc3N2)cc1 (stereo not given),active: 31.6 µM,
O=C(C1=C(O)C(=O)N(c2nc3ccc(Cl)cc3s2)C1c1ccco1)c1ccco1 (stereo not given),"inconclusive: 15.8 µM [inhibitor, partial curve, poor fit]",
CC(=O)/C(C#N)=C1\NC(=O)C(Cc2ccccc2C)S1 (stereo not given),"inconclusive: 28.2 µM [inhibitor, partial curve, poor fit]",
